Consider 172 sequences from publication PMC10668032.

Some of the results follow. At the low end of the ranking the order means little.

The target in this assay is SIX1-Q177R homeodomain (UniProt Q15475). The assay is described as follows: universal protein binding microarray. The following applies: Universal all-10-mer PBM (8x60K, AMADID 030236), 300 nM GST-tagged protein, Alexa Fluor 488 anti-GST; buffer, salt, pH and temperature not stated; high values mean tight binding; most listed sequences are background and not binding sites; double strand, one strand shown.
For the sequence AGAGCGCC, the binding signal is -0.156 E-score. For the sequence TGAGTCCA, the binding signal was -0.0891 E-score. With GTTGAAAC the figure was -0.00734 E-score; with GCGCTATA, -0.112 E-score; with ATGTTGGC, -0.221 E-score. As for ACGTGAGA, the binding signal was -0.133 E-score.

With TATACTGA, the binding signal was -0.0903 E-score. Turning to ATTGGCAC, the binding signal is 0.0709 E-score. Consider AAACCCGC, for which the binding signal was -0.00813 E-score. Consider AAACGACG, for which the binding signal is -0.0852 E-score. Then ATACTTGA, with 0.101 E-score; and CTCTCAGA, with -0.314 E-score; and TAAAGCGA, with -0.0859 E-score.

ACAACAAG: the binding signal is -0.165 E-score. As to GTTTCACA, the binding signal was 0.161 E-score. For CATCTACA, the binding signal is 0.0516 E-score. In the case of CCAGCTAC, the binding signal is 0.00288 E-score.

With CGGCTACA, the binding signal amounted to 0.133 E-score. Then GCTAAATA, with -0.105 E-score; and CTAACAGC, with -0.202 E-score.

For the sequence AACATCGT, the binding signal is -0.143 E-score. Take AGATAATC: the binding signal is -0.0432 E-score. For CGGAACAG, the binding signal was -0.208 E-score. For ATGTGCTA, the binding signal is -0.292 E-score. With GCCCCTCA the figure was 0.0147 E-score; with GATGGCTA, -0.0909 E-score; with CTAGGGGA, 0.0148 E-score. Then ATCCCGAC, with 0.133 E-score; and AAGGGGTC, with 0.17 E-score. Turning to GTGTCCGA, the binding signal worked out at 0.413 E-score. As for ATCCGGTG, the binding signal is 0.354 E-score.

Consider AAGGACTG, for which the binding signal was -0.304 E-score. Regarding AACCGGAT, the binding signal was found to be 0.0221 E-score. As to GTGGACGA, the binding signal was -0.0957 E-score. AAGTAAGT: the binding signal was -0.0907 E-score. Consider CGAAACCG, for which the binding signal was -0.0407 E-score.

Take AGGAATAG: the binding signal was -0.108 E-score. Then ACTGACGA, with -0.0804 E-score; and CGTAGGAA, with -0.0289 E-score; and CATTACGC, with -0.0757 E-score. Consider CGTGAGCA, for which the binding signal was -0.0853 E-score. Turning to GACTCATC, the binding signal is -0.07 E-score. With ACCCTATC the figure was 0.17 E-score; with ACGATCGT, 0.0151 E-score; with CGCATGCC, -0.225 E-score. Regarding GTTCGTTA, the binding signal is -0.155 E-score. As for AGAGAACA, the binding signal came out at 0.113 E-score.

Regarding CCTACTTA, the binding signal is 0.131 E-score. Regarding AAACCTTT, the binding signal is -0.194 E-score. Then CGATACTC, with 0.211 E-score. Turning to CCGCCATA, the binding signal was 0.0141 E-score. Turning to GCAAAAAA, the binding signal was -0.143 E-score.

In the case of ATTATAGG, the binding signal is -0.125 E-score. Consider GACTTCAC, for which the binding signal was -0.0555 E-score. Turning to CCTTGTTC, the binding signal came to 0.015 E-score.

Regarding CAGACCGG, the binding signal is -0.201 E-score. With ACGGCTCC the figure was -0.0148 E-score; with CAGTCGCC, -0.245 E-score; with AAAGGTAG, -0.132 E-score. Take ATCTTACC: the binding signal was -0.0243 E-score. Regarding GTGCATGA, the binding signal was -0.0382 E-score.

In the case of ACTAAGAT, the binding signal is 0.0663 E-score. Regarding CGTCCTCA, the binding signal was -0.189 E-score.

Turning to GGCTAGAA, the binding signal is -0.0468 E-score. Then TATGACCA, with -0.204 E-score; and ATGCTGAG, with -0.0829 E-score; and TCTTAGCA, with -0.209 E-score. Take ATGCATAC: the binding signal was -0.106 E-score. As to GAATGTAC, the binding signal is -0.165 E-score. With CGATTGGC the figure was -0.0217 E-score; with GGACATTA, 0.0691 E-score. With GTCAGATA the figure was 0.0594 E-score. In the case of GCCATAAA, the binding signal was -0.141 E-score. With CCTACGAC, the binding signal came out at 0.0906 E-score. Turning to GCCGTGAC, the binding signal came out at 0.0847 E-score. As for CGAGGTGA, the binding signal was -0.0309 E-score. Turning to ACTCCGCC, the binding signal was determined as 0.179 E-score. With GGTCCGAA, the binding signal is -0.0655 E-score. As for GGTCATGA, the binding signal is 0.13 E-score. Then AATGTGCA, with -0.073 E-score; and ATGAAAGC, with -0.135 E-score. Then CAGTTGCA, with 0.105 E-score; and GATCATTA, with -0.00836 E-score; and AGGCCCCC, with -0.0695 E-score. Turning to CGGCAAGA, the binding signal is -0.00915 E-score.

For CCAGGATA, the binding signal is 0.217 E-score.

With CAATGTCA, the binding signal is -0.0669 E-score.

Turning to CGAACGCC, the binding signal was -0.0373 E-score. For the sequence AAGGTCGG, the binding signal is 0.0818 E-score. On to CGCTCGAC, for which the binding signal is -0.111 E-score.

For CAGGGACA, the binding signal was found to be 0.114 E-score. With AACGATGC the figure was -0.297 E-score. For GATTCGGC, the binding signal amounted to 0.0237 E-score. In the case of GACGACAA, the binding signal was -0.0732 E-score. Then ATATGTCG, with -0.0925 E-score; and CCACAATC, with -0.116 E-score; and ACATCTGG, with -0.0493 E-score.

Take CGTTGGTA: the binding signal was determined as 0.151 E-score. For CTTCGGCC, the binding signal was -0.227 E-score.

For the sequence ACCATAGT, the binding signal is -0.0938 E-score. With AACTCATA, the binding signal is -0.21 E-score. Then GCGTCTGA, with -0.162 E-score. With GCTCTGAC, the binding signal worked out at 0.0191 E-score.

Take CTCAAAGA: the binding signal was -0.149 E-score. Consider GCGCGCGC, for which the binding signal is -0.0199 E-score. With CTGATTAC the figure was 0.0572 E-score.

Consider AAAGGGGC, for which the binding signal was -0.0825 E-score. As for TGGATGAA, the binding signal is -0.081 E-score.

With CCACATGC, the binding signal is -0.0463 E-score. Take CAAGATCG: the binding signal was -0.17 E-score.

Take ATAAACTC: the binding signal was found to be 0.0256 E-score. For ACCTTAGC, the binding signal is 0.071 E-score. In the case of AAGCGTTG, the binding signal is -0.0832 E-score. GCATGGGA: the binding signal was 0.00583 E-score. In the case of AGGCATTG, the binding signal was -0.127 E-score. Take CCAGCCGG: the binding signal is -0.131 E-score.

Turning to CAGGAGAC, the binding signal is -0.0162 E-score.

For the sequence ACGAGCAT, the binding signal was determined as 0.0697 E-score. GCGTATAC: the binding signal is 0.158 E-score. As for ACAGCCTA, the binding signal was -0.102 E-score. Regarding ATTGGCCG, the binding signal was -0.188 E-score. For ACCTAGCG, the binding signal turned out to be 0.0695 E-score. Regarding CCCCTTCA, the binding signal was 0.0576 E-score. For the sequence GGTGCAGA, the binding signal was determined as 0.134 E-score. Consider ACATATGG, for which the binding signal was -0.0667 E-score.

With ATGATTTC, the binding signal is -0.298 E-score. Turning to AAGATAAG, the binding signal is -0.0231 E-score. Then CGCTACCA, with -0.0893 E-score; and GATAGAAC, with -0.0734 E-score.

For the sequence AAAATCCG, the binding signal is -0.00153 E-score. In the case of CTACAGCA, the binding signal was -0.101 E-score. Then GAGCCGCA, with -0.213 E-score; and ACATAACG, with -0.19 E-score.

For GTTGGGTA, the binding signal came to 0.109 E-score.

For the sequence GCATACCC, the binding signal came out at 0.11 E-score. On to CTCTTGTC, for which the binding signal was -0.0153 E-score. Consider CTACGTGA, for which the binding signal is 0.0294 E-score. With AGGGTCAC the figure was 0.0913 E-score; with GAGTCATC, 0.0854 E-score.

For the sequence CCACTTTC, the binding signal was -0.187 E-score.

Regarding AACCTCAC, the binding signal was 0.0747 E-score.

For AGGGTTAT, the binding signal is 0.111 E-score. In the case of CTCCACTC, the binding signal is -0.00681 E-score.

As to ACCCCAGG, the binding signal stood at 0.249 E-score.

For the sequence AAGAGAGT, the binding signal is -0.0808 E-score. Regarding CCTGTAGC, the binding signal was -0.139 E-score. With ATTTGAAG the figure was -0.223 E-score; with CTACTCAG, -0.183 E-score; with CTAGTTAA, -0.0661 E-score. As for CCACTCCG, the binding signal is 0.122 E-score.

As for ACCCTTAG, the binding signal was 0.172 E-score. With CAGGGAAG the figure was -0.176 E-score. On to GCGCGAAC, for which the binding signal is 0.0694 E-score. With CAGAGGAA the figure was -0.163 E-score; with TAAAGTCA, -0.223 E-score. With ATTGACAG the figure was -0.246 E-score; with GGATGAAA, -0.0945 E-score; with CAATCTCG, -0.152 E-score. Take GTCGAAGA: the binding signal is -0.191 E-score. Consider CCCAGCGG, for which the binding signal came out at 0.0612 E-score. Then AACTAAAG, with -0.0943 E-score; and ATAGCGCC, with 0.0881 E-score; and ATTATACA, with 0.165 E-score. Take TGACAGCA: the binding signal was -0.0817 E-score. For AACGTGGA, the binding signal was -0.255 E-score. As to GAGACGAA, the binding signal is -0.152 E-score. Take ATGGTGTG: the binding signal was determined as 0.405 E-score.

ACTATCAG: the binding signal is 0.142 E-score. Take AAGTCGAC: the binding signal was -0.0133 E-score.

As for AAAGGTTG, the binding signal is -0.186 E-score. Regarding GACAATGC, the binding signal was -0.171 E-score. Take ATAGTTCA: the binding signal was -0.173 E-score.
